Out of some 39,000 compounds screened, about 220 (0.56%) showed activity. This is one part of the list.

Relative growth data for 60 compounds are collected here from the supplement of paper PMC9446081.
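Also: static incubation at 37 °C against the wild-type strain, values averaged over two biological replicates.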

The experiment deals with Escherichia coli K-12 BW25113. Description: relative growth (OD600 normalised to plate interquartile mean) (fraction); higher = less growth inhibition, active = 0.2 or less. The settings on record: 50 µM; LB; incubation time: overnight (16-24 h).
In the case of `C[C@@H]1CN([C@@H](C)CO)C(=O)Cc2cc(NC(=O)NC3CCCCC3)ccc2O[C@@H]1CN(C)Cc1ccc(Oc2ccccc2)cc1`, the relative growth is inactive: 1.03.
Consider `COc1ccc(NC(=O)N(C)C[C@H]2OCCCC[C@@H](C)Oc3ccc(NS(=O)(=O)c4c(C)noc4C)cc3C(=O)N([C@H](C)CO)C[C@@H]2C)cc1`, for which the relative growth is inactive: 0.999.
The value for `CO[C@H](CN(C)S(=O)(=O)c1ccc(F)cc1)[C@@H](C)CN([C@@H](C)CO)S(=O)(=O)c1cccc(Cl)c1` was inactive: 1.02; that for `COc1ccc(CNC(=O)C[C@H]2CC[C@H]3[C@@H](COc4ccc(NC(=O)C5CC5)cc4C(=O)N3C)O2)cc1` was inactive: 0.985.
Next, `Cc1cc(C(=O)Nc2cccc3c2O[C@H](CN(C)Cc2ccncc2)[C@H](C)CN([C@H](C)CO)C3=O)n(C)n1`: inactive: 1.01; `Cc1ccccc1S(=O)(=O)N1C[C@H](O)COC[C@H]2O[C@H](CC(=O)N3CCN(C)CC3)CC[C@@H]21`: inactive: 0.998.
Next, `CC1CC2C3CCC4=CC(=O)C=CC4(C)C3(F)C(O)CC2(C)C1(O)C(=O)CO` (stereo not given): inactive: 1.01.
Consider `O=C(N[C@@H]1CC[C@@H](CCNS(=O)(=O)c2ccc(F)cc2)O[C@H]1CO)C1CC1`, for which the relative growth was inactive: 1.01.
Regarding `Cc1ccccc1S(=O)(=O)N1C[C@@H](O)COC[C@@H]2O[C@H](CC(=O)N3CCOCC3)CC[C@H]21`, the relative growth was inactive: 1.01.
`O=C(O)c1cc2ccccc2c(Cc2c(O)c(C(=O)O)cc3ccccc23)c1O.OCCOCCN1CCN(C(c2ccccc2)c2ccc(Cl)cc2)CC1`: the relative growth is inactive: 1.17.
Next, `C[C@@H]1CN([C@H](C)CO)C(=O)Cc2cc(NS(C)(=O)=O)ccc2O[C@@H]1CN(C)S(=O)(=O)c1cccs1`: inactive: 0.992; `CN1CCN(C(=O)C[C@@H]2CC[C@@H](NC(=O)Cc3ccccn3)[C@@H](CO)O2)CC1`: inactive: 1; `C[C@@H]1CN([C@@H](C)CO)C(=O)c2cc(NC(=O)C3CC3)ccc2O[C@H]1CN(C)S(=O)(=O)c1ccc(Cl)cc1`: inactive: 1.02.
With `COc1ccc(cc1)S(=O)(=O)N1CC[C@]2(CC1)CN([C@H](CO)c1c2c2ccc(cc2n1C)OC)C(=O)CN(C)C`, the relative growth is inactive: 0.982.
For `COc1ccc(NC(=O)N(C)C[C@@H]2Oc3ccc(NC(=O)Nc4cccc5ccccc45)cc3CC(=O)N([C@H](C)CO)C[C@H]2C)cc1`, the relative growth is inactive: 1.01.
For the compound `O=C(C[C@H]1CC[C@H]2[C@@H](COC[C@H](O)CN2Cc2cccc(C(F)(F)F)c2)O1)NCCc1ccncc1`, the relative growth is inactive: 1.02.
Next, `COCC(=O)N[C@H]1C=C[C@@H](CC(=O)N2CCCCC2)O[C@@H]1CO`: inactive: 0.971; `Cc1noc(C)c1NC(=O)Nc1ccc2c(c1)C(=O)N([C@H](C)CO)C[C@H](C)[C@H](CN(C)S(C)(=O)=O)O2`: inactive: 0.97; `C[C@@H]1CN([C@@H](C)CO)C(=O)c2c(c3ccccc3n2C)-c2ccccc2CO[C@H]1CN(C)C(=O)N[C@H](C)c1ccccc1`: inactive: 1.01.
Regarding `C[C@H]1CN([C@@H](C)CO)C(=O)c2cc(NS(=O)(=O)c3cn(C)cn3)ccc2O[C@H]1CN(C)Cc1ccc(C(=O)O)cc1`, the relative growth was inactive: 0.99.
For `C[C@@H]1CN([C@H](C)CO)S(=O)(=O)c2ccc(-c3cncnc3)cc2O[C@@H]1CN(C)C(=O)NC1CCCC1`, the relative growth was inactive: 0.999.
Turning to `COc1ccc(CN(C)C[C@@H]2Oc3c(NS(=O)(=O)c4cn(C)cn4)cccc3C(=O)N([C@@H](C)CO)C[C@H]2C)cc1`, the relative growth was inactive: 0.973.
`C[C@@H]1CCCCO[C@@H](CN(C)CC2CCCCC2)[C@H](C)CN([C@H](C)CO)C(=O)c2cc(NC(=O)Nc3ccc(F)cc3)ccc2O1`: the relative growth was inactive: 0.967.
With `Cc1noc(C)c1S(=O)(=O)N(C)C[C@@H]1Oc2ccc(NC(=O)Nc3ccc4c(c3)OCO4)cc2CC(=O)N([C@@H](C)CO)C[C@H]1C`, the relative growth was inactive: 1.01.
For the compound `O=C(N/N=C/[C@@H](O)[C@H](O)[C@H](O)CO)c1ccccc1O`, the relative growth was inactive: 0.979.
In the case of `Cc1noc(C)c1NC(=O)N(C)C[C@@H]1Oc2c(NC(=O)C3CC3)cccc2C(=O)N([C@@H](C)CO)C[C@H]1C`, the relative growth was inactive: 0.973.
Regarding `Cc1ccc(S(=O)(=O)Nc2cccc3c2O[C@H](CN(C)S(=O)(=O)c2c(C)noc2C)[C@H](C)CN([C@H](C)CO)C3=O)cc1`, the relative growth is inactive: 0.999.
As for `C[C@@H]1CCCCO[C@@H](CN(C)C(=O)Nc2ccc(C(F)(F)F)cc2)[C@H](C)CN([C@@H](C)CO)C(=O)c2cc(NS(C)(=O)=O)ccc2O1`, the relative growth was inactive: 0.937.
With `C[C@H](CO)N1C[C@H](C)[C@H](CN(C)C(=O)Nc2ccc3c(c2)OCO3)OCc2ccccc2-c2c(n(C)c3ccccc23)C1=O`, the relative growth is inactive: 0.982.
As to `C[C@H](CO)N1C[C@H](C)[C@@H](CN(C)Cc2ccc(Cl)c(Cl)c2)Oc2ccc(NS(=O)(=O)c3ccc(Cl)cc3)cc2C1=O`, the relative growth was inactive: 1.
In the case of `Cc1noc(C)c1NC(=O)N(C)C[C@@H]1Oc2ccc(NC(=O)CCN3CCOCC3)cc2CC(=O)N([C@H](C)CO)C[C@H]1C`, the relative growth was inactive: 0.999.
In the case of `CN1CCN(C(=O)C[C@H]2CC[C@H]3[C@@H](COc4ccc(NC(=O)c5cccs5)cc4C(=O)N3C)O2)CC1`, the relative growth was inactive: 1.01.
Consider `Cc1cc(O)n(CCCO)c(=O)c1C#N`, for which the relative growth is inactive: 1.02.
Regarding `C[C@H](CO)N1C[C@H](C)[C@@H](CN(C)C(=O)Nc2ccc(F)cc2)OCCCC[C@H](C)Oc2ccc(NS(=O)(=O)c3cccs3)cc2C1=O`, the relative growth is inactive: 1.
The value for `CNC(=O)[C@H]1Cc2ccccc2N1C(=O)COC` was inactive: 0.988.
As for `Cc1ccc(S(=O)(=O)N(C)C[C@H]2OCCCC[C@@H](C)Oc3ccc(NS(C)(=O)=O)cc3C(=O)N([C@@H](C)CO)C[C@@H]2C)cc1`, the relative growth is inactive: 1.02.
The value for `C[C@@H]1CCCCO[C@@H](CN(C)Cc2ccc3c(c2)OCO3)[C@@H](C)CN([C@H](C)CO)C(=O)c2cc(NC(=O)NC3CCCCC3)ccc2O1` was inactive: 1.01.
`C[C@H]1CN([C@@H](C)CO)C(=O)c2cc(NC(=O)Nc3cccc4ccccc34)ccc2O[C@@H]1CN(C)Cc1ccc(C(=O)Nc2ccccc2N)cc1`: the relative growth is inactive: 1.01.
As for `C[C@H]1CCCCO[C@H](CN(C)S(=O)(=O)c2cccs2)[C@@H](C)CN([C@@H](C)CO)C(=O)c2cc(NC(=O)NC3CCCCC3)ccc2O1`, the relative growth was inactive: 1.01.
Next, `C[C@H](CO)N1C[C@H](C)[C@H](CN(C)Cc2ccc(C(F)(F)F)cc2)Oc2c(NC(=O)Nc3ccc(C(F)(F)F)cc3)cccc2C1=O`: inactive: 1.01.
`COCC#Cc1ccc2c(c1)O[C@@H](CN(C)C(=O)c1ccccc1)[C@@H](C)CN([C@@H](C)CO)S2(=O)=O`: the relative growth is inactive: 0.95.
For `C[C@@H]1CN([C@H](C)CO)C(=O)c2cc(NC(=O)Cn3cnnn3)ccc2O[C@@H]1CN(C)S(C)(=O)=O`, the relative growth is inactive: 1.01.
Next, `C[C@@H]1CN([C@H](C)CO)C(=O)c2cccc(NS(=O)(=O)c3ccc(F)cc3)c2O[C@@H]1CN(C)Cc1ccc(Oc2ccccc2)cc1`: inactive: 1; `COC[C@H](NC(=O)c1cnc(C)s1)C(=O)N[C@@H](COC)C(=O)N[C@@H](Cc1ccccc1)C(=O)[C@@]1(C)CO1`: inactive: 1.02; `CC(C)NC(=O)N(C)C[C@@H]1Oc2ccc(NC(=O)c3ccncc3)cc2CC(=O)N([C@@H](C)CO)C[C@@H]1C`: inactive: 0.976.
On to `CC(C)CC#Cc1cnc2c(c1)C(=O)N([C@H](C)CO)C[C@@H](C)[C@H](CN(C)C(=O)c1ccc3c(c1)OCO3)O2`, for which the relative growth is inactive: 1.01.
For `C[C@@H]1CCCCO[C@@H](CN(C)S(=O)(=O)c2cccs2)[C@@H](C)CN([C@H](C)CO)C(=O)c2cc(NC(=O)Cc3ccccc3)ccc2O1`, the relative growth is inactive: 1.
For the compound `Cc1ccc(S(N)(=O)=O)cc1`, the relative growth is inactive: 1.04.
As to `C[C@@H]1CCCCO[C@H](CN(C)C(=O)CCC(F)(F)F)[C@H](C)CN([C@@H](C)CO)C(=O)c2cc(NC(=O)Cc3ccccc3)ccc2O1`, the relative growth was inactive: 0.98.
Take `C[C@@H]1CN([C@H](C)CO)C(=O)Cc2cc(NC(=O)NC3CCCCC3)ccc2O[C@@H]1CN(C)Cc1ccc(Oc2ccccc2)cc1`: the relative growth was inactive: 1.02.
With `Fc1ccc(CSc2nc3ccccc3[nH]2)c2ccccc12`, the relative growth was inactive: 0.951.
In the case of `C[C@H](CO)N1C[C@H](C)[C@H](CN(C)S(=O)(=O)c2cn(C)cn2)Oc2ccc(NC(=O)Cc3ccccc3)cc2C1=O`, the relative growth was inactive: 0.968.
For the compound `C[C@@H]1CN([C@@H](C)CO)C(=O)Cc2cc(NC(=O)Nc3ccc(F)cc3)ccc2O[C@H]1CN(C)CC1CCCCC1`, the relative growth is inactive: 0.977.
For `CN1CCN(C(=O)C[C@@H]2CC[C@@H]3[C@H](COC[C@@H](O)CN3S(=O)(=O)c3cccc(Cl)c3)O2)CC1`, the relative growth is inactive: 1.03.
With `CO[C@H]1CN(C)C(=O)c2cc(NC(=O)c3ccc(F)cc3)ccc2OC[C@@H](C)N(C(=O)CN(C)C)C[C@H]1C`, the relative growth is inactive: 0.996.
As for `C[C@@H]1CN([C@H](C)CO)C(=O)c2cccc(NC(=O)Nc3ccc(C(F)(F)F)cc3)c2O[C@@H]1CN(C)Cc1ccc(C(F)(F)F)cc1`, the relative growth was inactive: 1.05.
The value for `O=c1ccn([C@@H]2O[C@H](CO)[C@@H](O)[C@H]2O)c(=O)[nH]1` was inactive: 1; that for `C[C@@H]1CCCCO[C@@H](CN(C)S(=O)(=O)c2ccccc2)[C@H](C)CN([C@@H](C)CO)C(=O)c2cc(NS(C)(=O)=O)ccc2O1` was inactive: 0.894.
`CC[C@@H](C)N1C(=O)CC[C@H]1C(=O)O`: the relative growth was inactive: 1.01.
Consider `C[C@@H]1CN([C@@H](C)CO)C(=O)c2cc(NS(=O)(=O)c3ccc(F)cc3)ccc2O[C@H]1CN(C)Cc1ccncc1`, for which the relative growth is inactive: 1.04.
